# Test results as given in PubChem BioAssay AID463173 (ICCB-Longwood Screening Facility, Harvard Medical School, 2010).
# The whole screen tested about 52,000 compounds, of which about 1,700 (3.3%) were called active. Cut-off read from the data, not from the text of the source: active = survival mostly below about 52% (no sharp cut-off); inactive = mostly above about 56%. The list shows a part of the results.
# System: Wild type
# Assay: growth inhibition of S. aureus wild type versus tarO mutant, primary screen, teichoic acid synthesis inhibitors, RN4220, OD600 (AID 463173)
# Settings: S. aureus RN4220 wild type/DeltatarO growth, OD600, 18 h, hits give low values, screened at 18.75 µg/mL (by protocol)
row,Compound,survival
1,Cc1ccccc1OCC(=O)Nc1ccccc1C(=O)OCc1cc(=O)n2c(C)csc2n1,inactive: 73%
2,COCCn1c(C)cc(O)c(C(c2ccccc2OC)N2CCCCC2)c1=O (stereo not given),inactive: 88%
3,COc1ccc(OC)c(CCNC(=O)c2ccc3[nH]c(C)c(C)c3c2)c1,inactive: 153%
4,CC1(C)CC2CC(C)(CN2C(=O)CCCN2C(=O)c3ccccc3C2=O)C1 (stereo not given),inactive: 115%
5,Cc1ccc(C)c(N2CCN(C(=O)c3cccn3-c3nnc(N4CCCCC4)s3)CC2)c1,inactive: 65%
6,COc1ccccc1CCNC(=O)CCc1c(C)c2cc3c(C)coc3cc2oc1=O,inactive: 82%
7,COc1cccc(CNC(=O)c2cc3c(=O)n(C)c4ccccc4c3n2C)c1,inactive: 92%
8,COc1ccc2cc(CNc3ccccc3)c(=O)n(CC(=O)Nc3ccc(C)cc3C)c2c1,active: -2%
9,Cc1ccc2c(CC(=O)Nc3c(C(=O)Nc4cccc(Cl)c4)oc4ccccc34)coc2c1C,inactive: 88%
10,O=C(NN1C(=O)C2C3c4ccccc4C(c4ccccc43)C2C1=O)c1cccnc1 (stereo not given),inactive: 108%
11,Cc1ccc2nc(SCc3nc(-c4ccccc4C)no3)[nH]c2c1,inactive: 27%
12,CC(C)(C)NC(=O)C1CC(=O)OC12CCCCC2 (stereo not given),inactive: 104%
13,Cc1ccc(N2CCN(C(=O)C3CCC(CNS(=O)(=O)c4ccc(Br)s4)CC3)CC2C)cc1 (stereo not given),inactive: 70%
14,Cc1ccc(NC(=O)Cn2c(=O)c(C(F)(F)F)nc3ccccc32)c(C)c1,inactive: 71%
15,CCCCN(CC)CCNC(=O)Cn1c(=O)c2cccn2c2cccnc21,inactive: 86%
16,CCc1cccc(OCC(=O)Nc2c[nH]c(=O)[nH]c2=O)c1,inactive: 102%
17,COc1ccc(NC(=O)CSC2=Nc3ccccc3C3=NC(Cc4ccccc4)C(=O)N23)cc1Cl (stereo not given),inactive: 68%
18,CN(Cc1ccccc1)C(=O)Cn1ncc2c3ccccc3n(Cc3cccc(Cl)c3)c2c1=O,inactive: 94%
19,Cc1ccc(Nc2cc(C(=O)NC3CCCC3)c3ccccc3n2)c(C)c1,inactive: 91%
20,O=S(=O)(Nc1cccnc1)c1ccc(C2CCCCC2)cc1,inactive: 110%
21,Cc1ccc(Cl)cc1Nc1sc(C(=O)c2ccccc2)c(N)c1S(=O)(=O)c1ccccc1,inactive: 91%
22,CC(C)(C)c1ccc(C(=O)N2CC(=O)Nc3ccc(F)cc3C2c2ccc(F)cc2)cc1 (stereo not given),inactive: 86%
23,Cc1cc(C)c2oc(-c3cccc(NC(=O)c4cc5ccccc5o4)c3)nc2c1,inactive: 65%
24,COc1cc(C)nc(N2CCCC(C(=O)Nc3ccccc3Br)C2)n1 (stereo not given),inactive: 106%
25,CCc1cnc2c(c1SCC(=O)NCc1ccccc1)c(=O)n(C)c(=O)n2C,inactive: 99%
